From ChEMBL document CHEMBL4888484, “Replenishing the malaria drug discovery pipeline: Screening and hit evaluation of the MMV Hit Generation Library 1 (HGL1) against asexual blood stage Plasmodium falciparum ,using a nano luciferase reporter read-out” (2022)
The whole screen tested about 150,000 compounds, of which about 540 (0.36%) showed an effect of 50% or more. The list shows a part of the results.

system: Plasmodium falciparum; test: Primary screen in NF54 nanoGlo assay, in single point, at 2uM, 72h; a lower Z score goes with more inhibition; format: functional, Erythrocyte; conditions: timepoint 72 hour

Row | SMILES | % Inhibition | Z score
1 | Cc1ccc(NC(=O)c2ccc(COc3ccc4c(c3)[C@H](c3ccccc3)N(C(=O)C(C)(C)C)CC4)o2)cc1 | -20% | 3.22
2 | CN(C(=O)Nc1c(F)cccc1Oc1ccccc1)C1CCOCC1 | -4% | 0.39
3 | COc1ccccc1CN1CCCN(c2ccc(NC(=O)COc3ccc(Cl)cc3)cn2)CC1 | 17% | -1.58
4 | O=C(Nc1ccc(Br)c(C2CC2)n1)N1C2CCC1COC2 | -9% | 1.64
5 | Cc1cc(CN[C@@H](C)CNS(=O)(=O)C2CC2)ccn1 | -2% | 0.3
6 | COc1ccc(-c2csc3c2c(=O)n(C)c(=O)n3CC(=O)N2CCOCC2)cc1 | 2% | -0.29
7 | CN(C)C(=O)CCOC(=O)c1ccccc1Cl | 7% | -1.02
8 | COc1ccc(Cn2cc([C@H](CC(=O)N3CCCC3)c3ccc(OCc4ccccc4)cc3)c3ccccc32)cc1 | -9% | 1.48
9 | Cc1c(CNc2cncc(F)c2)cnn1C | -10% | 1.44
10 | Cc1ccc(-c2nccn2[C@@H](C)C(N)=O)o1 | 13% | -1.72
11 | C1CCCC(CN[C@H]2CCOC2)(N2CCOCC2)CC1 | 2% | -0.2
12 | COCCNCCOc1ccccc1F | -6% | 0.5
13 | CC(C)CN(C)[C@@H](C(=O)O)c1cccc(C(=O)N2CCC(C)CC2)c1 | 5% | -0.48
14 | CCCN1C[C@@H](NC(=O)c2cnc(O)c(Cl)c2)CC1=O | 10% | -1.36
15 | C[C@H](NCc1ccc(C2CC2)cc1F)c1ccccn1 | -9% | 1.24
16 | CN(CC(=O)Nc1nncs1)S(=O)(=O)c1ccc(Br)cc1 | -46% | 5.38
17 | CC[C@H](C)[C@@H]1NC(=O)N(c2cccc3ccccc23)C1=O | -9% | 1.77
18 | CC1CCN(CCN(C)C(=O)c2cc3ccccc3n2C)CC1 | -4% | 0.82
19 | CN(C)c1ccc(CNC(=O)c2ccc3c(=O)n4c(nc3c2)CCCCCC4)cc1 | 0% | 0.06
20 | c1ccc(OCCNCCOc2ccccc2)cc1 | 4% | -0.46
21 | COc1ccc(C2CCCN2C(=O)CC(NC(N)=O)c2ccccc2)cc1OC (configuration not stated) | -3% | 0.42
22 | Cn1cnnc1CCC(=O)N1CCC[C@H](c2nc3ccccc3s2)C1 | 4% | -0.82

Row | SMILES | % Inhibition | Z score
23 | Cc1ccsc1CNc1nnnn1C | -10% | 1.53
24 | O=C(NCC1CC1)NC(C1CC1)C1CC1 | -14% | 2.11
25 | CCn1c([C@H]2CCCN(c3nc(C)cnc3C)C2)nn(CCN(C)C)c1=O | 2% | -0.3
26 | COCCOCc1nc(C2CCN(C(=O)Nc3ccccc3)CC2)no1 | 1% | -0.07
27 | CCc1csc(N2CCc3c(F)ccc(C(=O)O)c3C2)n1 | 2% | -0.21
28 | Cc1ccc(-c2nc(-c3cccc4ccccc34)[nH]c2-c2ccccc2)cc1 | 2% | -0.19
29 | CC(C)Cc1nc(NC(=O)CCNc2ncccn2)n[nH]1 | -17% | 2.17
30 | CCCc1cc(C(=O)Nc2cccnc2)cs1 | -20% | 1.81
31 | FC(F)(F)c1nc([C@H]2[C@@H]3CCCC[C@@H]32)c2n1CCNC2 | 1% | -0.16
32 | COc1ccc(NC(=O)NC(=O)COC(=O)c2cnn(-c3ccccn3)c2C(C)C)cc1 | 0% | -0.03
33 | CCOC(=O)CC1(S(=O)(=O)c2ccc(F)cc2)CCN(Cc2cnn(C)c2)CC1 | -9% | 1.75
34 | O=C(O)c1ccc(Cl)c(NC(=O)C(F)(F)F)c1 | -4% | 0.48
35 | CN(C(=O)C[C@@H]1C[C@H]1c1ccccc1)c1ccccc1S(C)(=O)=O | -1% | 0.15
36 | C[C@](O)(CNC(=O)c1cccnc1)C1CCCCC1 | -6% | 0.64
37 | CC1CN(CC(=O)Nc2nc3ccccc3s2)CC(C)O1 (configuration not stated) | -4% | 0.77
38 | Cc1nc2oc(-c3ccccc3)nc2cc1NC(=O)Nc1cccs1 | -20% | 2.59
39 | Cc1nc(CCN[C@H](c2ccc(Br)cc2)c2ccco2)cs1 | 0% | -0.03
40 | O=C(NC[C@@H]1C[C@H]1c1cccnc1)c1cccnc1OCC(F)F | 1% | -0.13
41 | CCN(CC)C(=O)NC[C@H]1CN(CC(C)C)C(=O)CO1 | 4% | -0.54
42 | O=C(NC1CCCC1O)C1CC2CCCCC2N1c1ncccn1 (configuration not stated) | -10% | 0.99
43 | CC(C)c1nc(CN2C[C@@H](C)O[C@@H](C)C2)co1 | 4% | -0.5
44 | O=C(C[C@@H]1CCCC[C@H]1O)N1CC(CO)C1 | 3% | -0.43

Row | SMILES | % Inhibition | Z score
45 | O=C1CCc2c(OC34CCCN(CC3)C4)cccc21 (configuration not stated) | -5% | 0.73
46 | O=C(CN[C@H](c1ccccc1)c1cccs1)Nc1ccc(N2CCCCC2)cc1 | 4% | -0.47
47 | Cc1cc(NC(=O)N2CCN(Cc3ccc4nccnc4c3)CC2)ccc1Br | -24% | 2.23
48 | CC(=O)NC[C@H]1CCCN(C(=O)c2cc(C)ccc2-n2cnnc2)C1 | -2% | 0.32
49 | Cc1nc([C@@H]2CCCN2c2ncc(Cl)cc2F)no1 | -5% | 0.62
50 | CC(C)(C)c1n[nH]c([C@@H]2CN(Cc3nnnn3C3CC3)CCO2)n1 | -20% | 2.05
51 | O=C1N[C@H](CO)C(=O)N2CCN(S(=O)(=O)c3ccc4ccccc4c3)C[C@H]12 | -6% | 0.72
52 | CCCn1ncc(C(=O)N2C[C@@H](F)C[C@H]2CNC(=O)c2cc(C)oc2C)c1C | -5% | 0.64
53 | COc1ccccc1CNCCc1nc(C)c(C)s1 | -15% | 2.22
54 | COCCNC(=O)C(=O)NC[C@H](O)c1ccc(C)o1 | -20% | 3.43
55 | CCC(C)C(O)CNC(=O)c1ccc(C#N)cn1 (configuration not stated) | -11% | 1.31
56 | O=C(C(c1ccccc1)c1ccccc1)N1CC(c2ccccc2)C1 | -3% | 0.4
57 | Cc1cnn(CCC(=O)N[C@H]2COCC[C@@H]2OCc2ccccn2)c1 | -3% | 0.56
58 | CCc1ccc2ncn(C3(C)CCC3)c(=O)c2c1 | -8% | 0.91
59 | Cc1ccc2nc(CNC(=O)c3cnc(C4CC4)nc3O)cn2c1 | -4% | 0.55
60 | O=C(Cn1c(-c2ccccc2)nn(-c2ccc(Cl)cc2)c1=O)NC[C@H](O)CO | -10% | 1.45
61 | C[C@@H]1CN(C(=O)CCn2nnc3ccccc32)C[C@]1(C)O | -8% | 1.45
62 | CN(C)C(=O)CO[C@H]1COCC[C@@H]1NC(=O)c1ccc2c(c1)OCCO2 | 1% | -0.07
63 | NC(=O)Cn1ccc(-c2cccc(-c3ncccc3Cl)c2)n1 | -10% | 0.91
64 | Nc1ccc(C(Cc2ccnc3ccccc23)Cc2ccnc3ccccc23)cc1 | -3% | 0.39
65 | CC[C@@H](C)[C@@H](CO)NC(=O)C[C@@H]1NC(=O)N(CCc2ccc(OC)c(OC)c2)C1O (some centres not stated) | -6% | 0.83
66 | CCCNc1ncc(CN2C[C@@H](CC(=O)O)[C@@H](c3c[nH]nn3)C2)cn1 | 4% | -0.55

Row | SMILES | % Inhibition | Z score
67 | Fc1ccc(-c2noc(-c3cnc([C@@H]4CCCO4)s3)n2)c(Cl)c1 | 3% | -0.3
68 | CC(=O)c1nn(-c2ccc(OC(F)(F)F)cc2)nc1Nc1ccccc1N1CCCCC1 | -10% | 1.77
69 | O[C@H]1Cc2ccccc2[C@H]1Nc1cncc(Br)c1 | -12% | 1.71
70 | CN1CC(c2nc(-c3ccncc3)no2)C(C(F)(F)F)C1 (configuration not stated) | -15% | 2.63
71 | Cc1cc(/C=C2\C=Cc3ccccc32)cc(C)c1N | -18% | 2.08
72 | CCC[C@H]1CN(C(=O)Cc2ccsc2)C[C@@H]1C(=O)O | -6% | 0.81
73 | O=C1C[C@@]2(CCCN(C(=O)NCC3(c4cccc(F)c4F)CCCC3)C2)CN1 | -14% | 1.87
74 | Cc1nnc(N2CCO[C@H](c3noc(C(C)C)n3)C2)o1 | -9% | 1.52
75 | CCOc1ccc(NC(=O)Cn2cccc2-c2nnc(C)o2)cc1 | -2% | 0.23
76 | CC(C)C[C@@H](NC(=O)[C@H]1CC[C@H](C(C)C)CC1)C(=O)O | -19% | 1.99
77 | COC(=O)c1ccc(CNS(=O)(=O)N(C)[C@@H](C)C2CC2)cn1 | -9% | 1.82
78 | CCc1ccc(C(=O)Cn2nc(-c3cccnc3)oc2=S)cc1 | -45% | 5.3
79 | COCC(=O)N(C1CCOCC1)[C@H]1CCN(C(=O)CC2CCCCC2)C1 | 35% | -3.98
80 | O=C(O)c1cc(NC(=O)C2CCCCC2C(=O)N2CCCC2)ccc1Cl (configuration not stated) | -5% | 0.43
81 | Cc1nncn1CCNC(=O)c1cc(Br)cn1C | 3% | -0.27
82 | O=C(Nc1nc(C2CC2)cs1)[C@@H]1CCCN1C(=O)c1cccs1 | -1% | 0.14
83 | Cc1ccccc1NC(=O)N1CCC(n2cc(-c3ccc(F)cc3)nn2)CC1 | -19% | 1.79
84 | CC1(C)CCN(C(=O)c2cc3c(s2)CCCC3)C1 | -6% | 0.87
85 | Cn1cc(CC(=O)NCc2cccc(Cl)c2)c2cccnc21 | -5% | 0.9
86 | Cc1cc(N(C)Cc2cnn(-c3ccccc3)c2)nc(C(C)C)n1 | -10% | 1.45
